From paper PMC4263767, “IL-28B is a Key Regulator of B- and T-Cell Vaccine Responses against Influenza” (PLoS Pathogens, 2014)

Test system: STAT1 phosphorylation in THP1-derived macrophages
Experiment: STAT1 phosphorylation in THP1-derived macrophages (flow cytometry)
Type: cell-based
Conditions: after stimulation, 5 experiments

IFN-α
time of peak STAT1 phosphorylation: 15 min
